# Laboratory results: the supplement of paper PMC3334620
# The full ranking holds about 33,000 sequences; the median of “E-score (-0.5 to 0.5)” is about -0.016, and the highest 2% start at about 0.31. Some of the results follow.
# Target: Cst6 (UniProt P40535)
# Test: PBM E-score (8-mer binding enrichment) (E-score (-0.5 to 0.5)); higher = stronger / more preferred TF binding; most listed sequences are background and not binding sites
# Details: protein concentration: 200 nM; construct: GST-DNA-binding domain
# Method in brief: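 GST-tagged yeast TFs (full-length or DNA-binding domain) were made by PURExpress in vitro transcription/translation and applied at about 100-200 nM to universal all-10-mer Agilent arrays. The arrays were made double-stranded by primer extension, on fresh or once-stripped slides. Bound protein was detected with fluorescent anti-GST, and scans were normalised with masliner. Each ungapped eight-base word, pooled with its reverse complement, received an E-score (modified Wilcoxon-Mann-Whitney statistic) from the Universal PBM Analysis Suite.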
row,Sequence,PBM E-score
1,ATTCGCCA,0.14
2,CTTCGAGC,-0.101
3,AAAATCTC,0.0464
4,ATGCTAAT,0.152
5,CATTAAAA,0.261
6,CGTGATGA,0.297
7,GAGCTTAC,-0.0468
8,GGAGGCCC,-0.275
9,CGCCGGGC,-0.123
10,AAGTCGCT,-0.157
11,CGGCTCAA,0.164
12,TCACCTCA,0.298
13,TATTGTAA,0.15
14,ATTGGCTG,-0.0847
15,GGATTCAC,-0.0944
16,AGGCCTCC,-0.321
17,GCTAACCA,-0.205
18,AGCCCTAG,-0.122
19,CCCGCTCC,-0.398
20,CAGGCACG,-0.00833
21,AGATTGGC,-0.177
22,AAGGCCGC,0.0764
23,GGTTGCGA,-0.0447
24,CGGGGTTA,-0.0616
25,AAGTTGCG,0.102

row,Sequence,PBM E-score
1,AATGTTGC,0.169
2,ATAGCAAT,0.19
3,CCCAGGGG,-0.252
4,ACAAGACT,-0.0794
5,GGTAGCCA,-0.187
6,AGAGCAGG,-0.0274
7,TATCGAGA,-0.00999
8,GCTAGAGA,-0.0439
9,AAAATAGG,0.0451
10,CCGGCGCC,0.14
11,GAGATGAA,-0.133
12,GAAAGACC,-0.212
13,CGACTCTC,-0.162
14,ACGGTTCG,-0.17
15,CTGTGTAA,0.177
16,TAGGGAAA,0.0127
17,AATCATAT,0.172
18,CAGGATAC,-0.0009
19,CTTTCATA,0.206
20,AAGCCTCC,-0.209
21,GTGACAAC,0.268
22,ACGTTCGA,0.0909
23,AAAATGTA,0.154
24,ATGACCAG,0.0388
25,AGATGAAC,0.0549

row,Sequence,PBM E-score
1,CTTGATTA,-0.0838
2,CTATATCA,0.189
3,GGTGGACA,-0.117
4,AAATTCGG,0.0235
5,ATAGAGTG,-0.0498
6,GAGACGAC,-0.228
7,CAAATTAC,0.225
8,CTTAGGAA,0.101
9,TGTTCAAA,0.0911
10,AGGTGTCA,0.102
11,GGGTGCGA,-0.156
12,CCATACAA,0.0991
13,AAAAATCA,0.222
14,GTTCAGGA,0.0305
15,CCGAAAAA,0.182
16,GACGTTAA,0.32
17,TCAACTAA,0.197
18,ACGATAGG,-0.125
19,AGAGTAAC,0.00715
20,GTCTGGCA,-0.322
21,AACTTAGG,-0.0689
22,AACAATCA,0.287
23,ATGAATTC,0.134
24,AAACCCAA,0.0909
25,CAATCACA,0.112

row,Sequence,PBM E-score
1,ATCATAGG,0.193
2,TGTGTAAA,0.283
3,ACCGTAGT,-0.163
4,CACTTTCC,-0.0474
5,ACCCGAAG,-0.21
6,GCGTTAGC,0.0351
7,ATACCGTA,0.0418
8,GTCGGGTA,-0.158
9,GGGTCTAA,-0.119
10,CTTAGATA,0.0873
11,ATGGCCAT,-0.292
12,AATCGCCT,0.172
13,CTGTTCGC,0.0664
14,GTTACTAA,0.171
15,GCCCACCC,0.114
16,CTGGGGTA,-0.226
17,GGCCTACA,-0.0987
18,CCGTACAG,0.0556
19,AAAATCGC,0.113
20,CGGGGAAC,-0.0966
21,CCAAACTC,-0.0716
22,AACGCTCG,0.112
23,GATGGGGC,-0.12
24,CGACCTAC,-0.262
25,ACCCGCGC,0.172

row,Sequence,PBM E-score
1,CCGGATAA,-0.0352
2,GGGTTCAA,-0.14
3,ATTTTTCG,0.244
4,CTCTCCCA,-0.296
5,GTTGGAGA,-0.0327
6,ACGGCAGG,-0.19
7,ATTTACTA,0.107
8,GTATATGA,0.217
9,ACGGGAAT,-0.116
10,CTATTGTC,0.0433
11,ACCAAGTA,0.11
12,TCCTCTCA,-0.21
13,GATGGAAA,-0.0381
14,GTTGTGAA,0.128
15,CGAGTACC,-0.158
16,AGGCGCAC,0.057
17,CACTTCAA,0.0667
18,AATGATAC,0.316
19,CATTTGCC,-0.144
20,ATACTGTA,0.0985
21,GACGTCTA,0.182
22,ACAACCGG,-0.134
23,TTCTGAAA,0.106
24,AAACAACT,0.0816
25,CGGTCAGC,-0.205

row,Sequence,PBM E-score
1,AAATTAGC,0.153
2,CACCTCCC,-0.206
3,GTATATCA,0.233
4,GCCGAGCA,-0.177
5,AAAGAGGA,-0.215
6,AGAAGGGA,-0.314
7,GGAGGTTA,-0.264
8,ACGGCCGC,0.149
9,GGAAGGGA,-0.319
10,CTCTAGGC,-0.143
11,CCGGACGG,-0.109
12,GGAGACCA,-0.246
13,CTGCGTGC,-0.0523
14,CCCTGCTC,-0.31
15,CTTTACCC,-0.126
16,CATATTCA,0.213
17,AGGGTGAA,-0.167
18,CGGCATGA,0.235
19,CACTGATC,-0.0646
20,CGCCCTTA,-0.209
21,CCTGAAAC,0.0564
22,ACCCATTA,-0.0004
23,GCGTATCC,-0.225
24,CAAGTGTG,-0.0332
25,AAGGGGCT,-0.0742

row,Sequence,PBM E-score
1,GTGCTTGA,-0.108
2,CGAACACG,0.08
3,CCCACGCG,-0.265
4,GGCTTGGA,-0.226
5,CCGATGCG,-0.185
6,CGGTACGA,-0.051
7,AGTCGTAT,-0.0183
8,CGACCCTA,-0.273
9,CTTAAATA,-0.00676
10,GGTGACCA,-0.0455
11,GGCGGACA,-0.203
12,ACTCCCCG,-0.0792
13,AATTGCCG,0.123
14,GCCAGTTA,-0.0579
15,CGCGTTTA,0.107
16,AAGGAGAC,-0.192
17,AGGTAGCA,-0.141
18,GGTAATAA,0.247
19,AGAGTCAA,-0.198
20,AGCAATAT,0.055
21,CTAATTAC,0.243
22,CGAAGCCG,-0.201
